Data on 2 molecules can be found in patent US20260034119A1, “5-METHOXY-N,N-[…][…], THEIR […], AND METHODS FOR TREATMENT OF NEUROLOGICAL, […], AND SUBSTANCE USE DISORDERS” (priority 2023, published 2026).

This assay has as its target 5-HT1A F361L (Homo sapiens, UniProt P08908, F361L).

5-HT1A F361L, sequence (P08908 whole entry F361L): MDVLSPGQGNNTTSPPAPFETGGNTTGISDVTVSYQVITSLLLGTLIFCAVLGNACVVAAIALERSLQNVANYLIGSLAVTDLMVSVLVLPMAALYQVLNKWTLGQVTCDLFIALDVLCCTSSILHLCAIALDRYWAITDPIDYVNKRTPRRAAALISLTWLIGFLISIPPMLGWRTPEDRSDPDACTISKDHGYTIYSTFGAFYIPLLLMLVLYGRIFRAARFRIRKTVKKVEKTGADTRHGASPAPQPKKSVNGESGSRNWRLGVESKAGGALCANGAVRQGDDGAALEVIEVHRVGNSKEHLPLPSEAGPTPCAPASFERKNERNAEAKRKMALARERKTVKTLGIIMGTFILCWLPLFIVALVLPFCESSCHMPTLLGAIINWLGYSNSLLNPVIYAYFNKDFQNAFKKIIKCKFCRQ

Regarding `COc1ccc2[nH]cc(CCN3CCCC3)c2c1F` [4-F, 5-MeO-PyrT, 4-Fluoro, 5-methoxypyrrolidinyl-tryptamine], under “cAMP, 5-HT1A F361L^6.51”, a half-maximal effect (EC50) was put at 0.84 nM and the pEC50 (as a rule, the EC50 on a negative log10 scale, so that one unit is a factor of ten) came out at 9.08. For the same molecule, the “Fold-Change (F361L EC50/WT EC50)” value (cAMP, 5-HT1A F361L^6.51 vs 5-HT1A WT) is reported as 29.

Regarding `COc1ccc2[nH]cc(CCN(C)C)c2c1` [Compound 5-MeO-DMT, 5-methoxy-N,N-dimethyltryptamine, reference compound], the “5-HT1A potency loss by F361 mutation” value (mutant vs wildtype 5-HT1A) is on record as “greater 5-HT1A potency loss than 4-F, 5-MeO-PyrT”.
